Experimental findings from a collection of fitness landscapes (doi:10.1016/j.celrep.2020.107928) are described below.

Over roughly 81,000 sequences, “one-hybrid fitness for binding parS DNA” has its median near -0.17; the highest 2% begin near 0.51. The list shows a part of the results.

B1: Caulobacter ParB omega fusion; a variant is named by its letters at X, in order, B8GW30 (parent)
chain: MESVVVGEPGMSEGRRGLGRGLSALLGEVDAAPAQAPGEQLGGSREAPIEILQRNPDQPRRTFREEDLEDLSNSIREKGVLQPILVRPSPDTAGEYQIVAGERAWRAAQRAGLKTVPIMVRELDDLAVLEIGIIENVQRADLNVLEEALSYKVLMEKFERTQENIAQTIGKSXSHVANXMRLLXLPDEVQSYLVSGELTAXHARAIAAAADPVALAKQIIEGGLSVRETEALARKAPNLSAGKSKGGRPPRVKDTDTQALESDLSSVLGLDVSIDHRGSTGTLTITYATLEQLDDLCNRLTRGI

In this experiment the parent is B1. Put plainly: one-hybrid fitness for binding parS DNA (scaled: cognate 1, non-cognate 0); higher = stronger binding. To be noted: with parS DNA site. In short, it runs like this:
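The reporter was HIS3, with the binding site 19 bp from the promoter, in E. coli USO used for bacterial one-hybrid selection of Caulobacter ParB libraries with four specificity codons randomised. Growth was on M9 lacking histidine, with 0.1 mM IPTG and 5 mM 3-AT, for 48 hours at 37°C. Illumina sequencing covered plasmids before and after selection; three replicate libraries were pooled and variants with under 10 reads dropped. A fitness score is the log change in variant-to-wild-type read ratio, rescaled to the cognate and non-cognate references.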
Take RNGE: the “one-hybrid fitness for binding parS DNA” value was at most 0.2.
Regarding DDTF, the “one-hybrid fitness for binding parS DNA” value is at most 0.2.
The value for YNWT was at most 0.2; that for LCVL was at most 0.2.
The value for HERG was at most 0.2.
The value for TQAE was at most 0.2.
In the case of PVDR, the “one-hybrid fitness for binding parS DNA” value was at most 0.2.
To WKLC belongs at most 0.2; to LPLQ, at most 0.2.
The value for RIAG was 0.997; that for WSDF was at most 0.2; that for HHAL was at most 0.2.
In the case of RPGP, the “one-hybrid fitness for binding parS DNA” value was at most 0.2.
For HRID, the “one-hybrid fitness for binding parS DNA” value is at most 0.2.
The value for THCI was at most 0.2; that for WMGR was at most 0.2; that for LQEI was at most 0.2.
To NFRS belongs at most 0.2.
The value for HMMK was at most 0.2; that for DISI was at most 0.2.
In the case of IVWC, the “one-hybrid fitness for binding parS DNA” value is at most 0.2.
The value for QVNH was at most 0.2.
To IVLW belongs at most 0.2; to KFRE, at most 0.2; to CCER, at most 0.2.
To LLKE belongs at most 0.2; to SLTQ, at most 0.2; to LATV, at most 0.2.
As for NVIC, the “one-hybrid fitness for binding parS DNA” value is at most 0.2.
To VTGV belongs at most 0.2; to RWEL, at most 0.2; to WFTC, at most 0.2.
For the variant TWDF, the “one-hybrid fitness for binding parS DNA” value was at most 0.2.
To IMTW belongs at most 0.2.
The value for TMHM was at most 0.2; that for QKNQ was at most 0.2; that for IMKS was at most 0.2.
The value for HAVW was at most 0.2.
For CFLS, the “one-hybrid fitness for binding parS DNA” value was at most 0.2.
The value for GMYS was at most 0.2.
To LCMV belongs at most 0.2; to TALT, at most 0.2.
The value for MTTC was at most 0.2; that for KHVR was at most 0.2; that for CDSC was at most 0.2.
Turning to KHPI, the “one-hybrid fitness for binding parS DNA” value is at most 0.2.
The value for ETNQ was at most 0.2; that for TDTM was at most 0.2; that for TCYR was at most 0.2.
The value for HFAG was at most 0.2; that for QDVI was at most 0.2.
The value for NPEG was at most 0.2; that for CYDR was at most 0.2.
For the variant LESW, the “one-hybrid fitness for binding parS DNA” value is at most 0.2.
To QSAF belongs at most 0.2; to IQLP, at most 0.2; to MESK, at most 0.2.
As to MLCM, the “one-hybrid fitness for binding parS DNA” value was at most 0.2.
The value for PPMV was at most 0.2; that for MYEG was at most 0.2.
The value for DQHS was at most 0.2; that for CFQG was at most 0.2.
To AAAG belongs at most 0.2; to CFNE, at most 0.2.
YHLC: the “one-hybrid fitness for binding parS DNA” value was at most 0.2.
On to LSWN, for which the “one-hybrid fitness for binding parS DNA” value is at most 0.2.
To WGAA belongs at most 0.2; to KQWR, at most 0.2; to DGSD, at most 0.2.
The value for KTFV was at most 0.2; that for QGVM was at most 0.2; that for VNAN was at most 0.2.
To IAYG belongs at most 0.2; to DCIM, at most 0.2; to QVVY, at most 0.2.
GQFC: the “one-hybrid fitness for binding parS DNA” value is at most 0.2.
To THNI belongs at most 0.2; to GELK, at most 0.2; to QNAR, at most 0.2.
To LMSF belongs at most 0.2; to SIML, at most 0.2.
To IPDY belongs at most 0.2; to LTFV, at most 0.2; to VDDL, at most 0.2.
Consider NATY, for which the “one-hybrid fitness for binding parS DNA” value is at most 0.2.
With TQVV, the “one-hybrid fitness for binding parS DNA” value is at most 0.2.
The value for RWNQ was at most 0.2; that for TCAW was at most 0.2.
On to SYLA, for which the “one-hybrid fitness for binding parS DNA” value was at most 0.2.
The value for PYTG was at most 0.2; that for HFNS was at most 0.2; that for RCEE was at most 0.2.
The value for QGMG was at most 0.2.
To WGRS belongs at most 0.2; to GVDV, at most 0.2; to CHWG, at most 0.2.
Turning to TDTL, the “one-hybrid fitness for binding parS DNA” value is at most 0.2.
To RTAE belongs at most 0.2; to DCSG, at most 0.2; to KDNS, at most 0.2.
With VMPL, the “one-hybrid fitness for binding parS DNA” value was at most 0.2.
The value for SSCC was at most 0.2.
To RSYW belongs at most 0.2; to ENKG, at most 0.2.
On to STMD, for which the “one-hybrid fitness for binding parS DNA” value was at most 0.2.
The value for IGKY was at most 0.2; that for FQVR was at most 0.2; that for ARQY was at most 0.2.
With HALG, the “one-hybrid fitness for binding parS DNA” value was at most 0.2.
To LPVA belongs at most 0.2; to NLTY, at most 0.2; to LHPQ, at most 0.2.
To IFTF belongs at most 0.2; to WPMG, at most 0.2; to SKGG, at most 0.2.
The value for YIHK was at most 0.2; that for QVMR was at most 0.2.
For the variant PRTW, the “one-hybrid fitness for binding parS DNA” value was at most 0.2.
To RREP belongs at most 0.2; to GRYS, at most 0.2.
The value for VPNP was at most 0.2; that for RMIE was at most 0.2; that for RRSM was 0.364.
To KCNS belongs at most 0.2; to AAAF, at most 0.2.
For HPDL, the “one-hybrid fitness for binding parS DNA” value was at most 0.2.
To DHQG belongs at most 0.2.
The value for RNSV was at most 0.2.
To VMQK belongs at most 0.2; to FFSS, at most 0.2; to STAT, at most 0.2.
Turning to NGWS, the “one-hybrid fitness for binding parS DNA” value was at most 0.2.
For NEAS, the “one-hybrid fitness for binding parS DNA” value was at most 0.2.
To SCPR belongs at most 0.2.
The value for CVFC was at most 0.2; that for QVTW was at most 0.2.
To IMEG belongs at most 0.2; to KMSY, at most 0.2; to LLMM, at most 0.2.
For FGWS, the “one-hybrid fitness for binding parS DNA” value is at most 0.2.
For the variant YPFR, the “one-hybrid fitness for binding parS DNA” value is at most 0.2.
In the case of LGDS, the “one-hybrid fitness for binding parS DNA” value is at most 0.2.
To LSFP belongs at most 0.2; to VPDG, at most 0.2.
To VMCT belongs at most 0.2; to CDED, at most 0.2.
The value for FQPY was at most 0.2.
As to KKQS, the “one-hybrid fitness for binding parS DNA” value is at most 0.2.
Regarding ITSF, the “one-hybrid fitness for binding parS DNA” value was at most 0.2.
As for FNRT, the “one-hybrid fitness for binding parS DNA” value is at most 0.2.
As to LWPE, the “one-hybrid fitness for binding parS DNA” value is at most 0.2.
The value for NIVC was at most 0.2.
To HWNS belongs at most 0.2.
